Results on 90 compounds are retold here after PubChem BioAssay (NCI).

Where “and” joins values, the source holds several entries; their conditions need not be identical. Equal entries are not always repeated.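 These data come from cells grown in 96-well plates and exposed to compound for 48 hours at five concentrations. GI50: concentration for 50% inhibition of growth. TGI: concentration producing complete growth inhibition.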

In this assay the test system is NCI-H322M lung. Put plainly: NCI tumour cell line growth inhibition, 48 h.

Compound `CCOC(=O)C1=C(O)CC(=O)N=C1N1CCCC1` registered a TGI above 100 µM.

In turn, `O=C(/C=C/c1ccc(OCc2ccccc2)cc1)NCc1ccc(C(=O)NCCc2ccccc2)cc1` yielded a TGI above 100 µM. The same measure, in the same setting: the same measure for `COc1cc2c(c(OC)c1OC)C(=O)c1c(O)cc(C)c(OC)c1C2=O`: above 100 µM; for `S=c1ncc(-c2cncc(-c3cnc(=S)[nH]c3)n2)c[nH]1`: above 100 µM; for `O=[N+]([O-])c1cccc(/C=N/Nc2ccc3ccccc3n2)c1O`: 29.1 µM. Regarding `C=CCC(N[C@@H](CO)c1ccccc1)c1ccc2ccccc2n1` (stereo partly drawn), the GI50 was above 100 µM and the TGI was above 100 µM.

`CCOP1(=O)CC(C)=C(Cl)C(OC)C1` (stereo not drawn) returned a TGI above 100 µM.

As to `Oc1c(Br)cc2c(c1Br)-c1c(c(O)c3c4c1=NCCC=4C=N3)NCC2`, the TGI was 35.6 µM. With `COc1cc2ncn(-c3cc(OCc4ccccc4C(F)(F)F)c(C(N)=O)s3)c2cc1OC`, the GI50 was 4.12 µM and the TGI was above 25 µM.

Compound `CO[C@@]12C[C@H](CNC(=O)c3ccc[nH]3)O[C@@H]1NC(=O)N2` came in with a TGI above 100 µM. On the same count and under the same terms, to `COc1ccc(/C=C/C(=N\NC(=O)c2ccccc2)c2sc(Nc3ccc([N+](=O)[O-])cc3)nc2C)cc1OC` belongs above 100 µM; to `CNC(=S)N/N=C/C(C)=N/NC(=S)NC`, above 100 µM.

For `CC(C)(Oc1ccc(-c2cccc3ccccc23)cc1)C(=O)O`, the TGI is above 100 µM. Same read-out and setting: the same measure for `COC(=O)c1ccccc1CC1Cc2c(C)ccc(C)c2C1=O` (stereo not drawn): above 100 µM. Still for that read-out and setting: the same measure for `CC(=O)O[C@H]1[C@@H](N2CCOCC2)C[C@H]2[C@@H]3CC=C4C[C@@H](N5CCCC5)CC[C@]4(C)[C@H]3CC[C@@]21C`: above 100 µM; for `CC(C)c1cc(=O)[nH]c2cc(N)ccc12`: above 100 µM. `NC(=S)NNCC(=O)CC(O)(C(F)(F)F)C(F)(F)Cl` (stereo not drawn) came in with a TGI above 100 µM. The same measure, in the same setting: to `O=c1cc(NNc2cccc3ccccc23)[nH]c(=O)[nH]1` belongs 30.1 µM; to `CCOC(=O)N1c2ccccc2C(C)=CC(C)C1C` (stereo not drawn), 93.1 µM; to `CC(C)c1ccc(O)c(Cc2cc(C(C)C)cc(Cc3cc(C(C)C)ccc3O)c2O)c1`, 3.49 µM. For the compound `CC(=O)OC1CCn2c1nc1cc([N+](=O)[O-])c(C)cc12` (stereo not drawn), the TGI is above 100 µM. Still for that read-out and setting: to `O=c1cc(-c2cccc(OC(F)(F)F)c2)[nH]c2ccc(N3CCCC3)cc12` belongs above 100 µM; to `CCOc1ccc2nc(NC(=O)C(=O)C3C(=O)C(CC4C(=O)c5ccccc5C4=O)C(=O)CC3(C)C)sc2c1` (stereo not drawn), above 100 µM; to `COC(=O)/C=C(C)/C=C\COC1CCCCO1` (stereo not drawn), above 100 µM. The same measure, in the same setting: the same measure for `NC1=Nc2cc(C(F)(F)F)ccc2Sc2nc3ccccc3n21`: above 100 µM.

Consider `Cn1cc(-c2cc(-c3cn(C)c4ccccc34)[nH]n2)c2ccccc21`, for which the GI50 was above 100 µM and the TGI was above 100 µM. In the case of `COc1cc2c(c(OC)c1OC)-c1cc(I)c(O)cc1[C@@H](NC(C)=O)CC2`, the GI50 was 0.0413 µM and the TGI is above 100 µM. Taken in the same sequence, the figures for `CCc1ccc2c(c1)C(=O)c1c-2n(CCCN)c(=O)c2cc(OC)c(OC)cc12` were 1.56 µM and 3.06 µM. The matching figures for `COc1cc(N=Nc2cc(Cc3ccc(N(C)C)cc3)c(N)cc2N(C)C)c2ncccc2c1`: 0.483 µM and 2.95 µM. On to `Cc1nn2c(=O)c([N+](=O)[O-])c(/C=C/c3ccc(F)cc3)nc2s1`, for which the TGI is 24.8 µM. `COc1cc(-c2nc(-c3ccccc3)c(-c3ccccc3)[nH]2)cc(OC)c1O`: the GI50 is 25.1 µM and the TGI came out at 63.1 µM. The matching figures for `Cc1ccc(-c2nc(NCCOCCOCCN)nc(N3CCN(c4ccccn4)CC3)n2)cc1`: 15.7 µM and 30.9 µM. Taken in the same sequence, the figures for `[O]=[Sn]([CH]1CCCCC1)[CH]1CCCCC1` were 0.666 µM and 2.11 µM. The compound `C[N+](C)(C)CC1CCC(C[N+](C)(C)C)C1=NO` (stereo not drawn) returned a TGI above 100 µM. On the same count and under the same terms, to `CNC(=O)OCc1cnc([N+](=O)[O-])n1C` belongs above 100 µM. In the case of `COc1cccc(C2CC(=O)Nc3c2c(C)nn3-c2nc3ccccc3[nH]2)c1OC` (stereo not drawn), the GI50 was 9.41 µM and the TGI is above 100 µM. For `Cc1cccc2c(=O)c3c(O)cc(O)cc3n(C)c12`, the TGI is above 100 µM. `COC1OC2COC(=O)c3cc(O)c(O)c(O)c3-c3c(cc(O)c(O)c3O)C(=O)OC2C(O)C1O` (stereo not drawn) showed a TGI above 100 µM.

`COC(=O)CC1(O)C(=O)OCc2c1cc1n(c2=O)Cc2c-1nc1ccccc1c2OC` (stereo not drawn) returned a TGI above 25.5 µM. Consider `CCN(CC)c1ccc(/C=N/NC(=O)Cc2ccc(Nc3ccnc(C(F)(F)F)c3)cc2)c(O)c1`, for which the GI50 was 0.429 µM and the TGI was above 100 µM. In the case of `Cc1c2cc[n+](Cc3ccc(I)cc3)cc2c(C)c2c1[nH]c1ccccc12`, the TGI was above 19.6 µM.

`CN1NC(c2ccc(Cl)cc2)=C(C#N)C(=O)CC1c1ccccc1` (stereo not drawn) displayed a TGI above 100 µM.

The compound `CCCCCCCCCCCCCCCCCc1nc(Cl)nc(Cl)c1Cl` came in with a TGI above 100 µM.

The compound `S=C(NCc1ccccn1)N/N=C/c1ccccn1` displayed a TGI above 100 µM. The same measure, in the same setting: to `Fc1ccccc1CN1COc2c(cc(Cl)c3cccnc23)C1` belongs 13.3 µM; to `Nc1nc(N)c2nc(CN(C=O)c3ccc(C(=O)O)cc3)cnc2n1`, above 100 µM; to `COc1ccc(/C=C/C(=O)c2c(-c3ccccc3)nn(C)c(=O)c2N2CC2C)cc1` (stereo not drawn), above 100 µM.

In the case of `Cc1ccc(S(=O)(=O)OC[C@@]2(C)CC[C@]3(C)CC[C@]4(C)C(=C3C2)C=C[C@@H]2[C@@]3(C)CCCNC(C)(C)[C@@H]3CC[C@]24C)cc1`, the GI50 was 1.62 µM and the TGI is 3.01 µM. For `CCCCCCCCCCCC1N=C(N)N=C(N)N1c1cccc(Br)c1` (stereo not drawn), the GI50 is 1.17 µM and the TGI was found to be 5.48 µM. The matching figures for `Clc1ccc2c(NCCNc3nc(N4CCOCC4)nc4ccccc34)ccnc2c1`: 2.31 µM and 7.18 µM. As to `COc1ccc(-c2nc3ccccc3c(=O)[nH]2)cc1`, the TGI was above 100 µM. On to `Brc1ccc2[nH]c3c(C4=NCCC4)nccc3c2c1`, for which the TGI is above 67.3 µM. Still for that read-out and setting: the same measure for `CC(=O)N[C@@H](Cc1ccc(O)cn1)C(=O)NCc1ccc(Cl)cc1`: above 100 µM; for `Cc1nc2c(C)ccc([N+](=O)[O-])c2c(NCCCN(C)C)c1C`: above 100 µM; for `CC1CC(=O)N(N(C)C)C2(C#N)C(=O)N=C(N)C12C#N` (stereo not drawn): above 100 µM. The same measure, in the same setting: the same measure for `C[N+]1(C)CCCC(C#N)(c2ccccc2)CC1` (stereo not drawn): above 100 µM; for `COC(=O)c1ccccc1C1CN=NC12Cc1ccc(C)cc1C2=O` (stereo not drawn): above 100 µM; for `CC(=O)Oc1ccc2cc(Oc3cc(Cl)c(Cl)cc3Cl)c(=O)oc2c1`: 55.3 µM. In turn, `O=C(O)CN1C(=O)c2ccc(NC(=O)C(=O)O)cc2S1(=O)=O` returned a TGI above 100 µM. In the case of `NC(=NCCCCCCN=C(N)/N=C(\N)Nc1ccc(Cl)cc1)/N=C(\N)Nc1ccc(Cl)cc1`, the GI50 is 1.56 µM and the TGI amounted to 6.68 µM. The matching figures for `O=C(/C=C/c1ccc(O)c(O)c1)N1CCN(c2ccc(Cl)cc2)CC1`: 21.2 µM and above 100 µM. As for `CCOC(=O)C(C)c1nc2cc(F)c(F)cc2[nH]c1=O` (stereo not drawn), the TGI is above 100 µM. As to `CCCN1C(=O)/C(=C/c2ccc(SC(F)(F)F)cc2)SC1=Nc1ccc(OC)cc1`, the GI50 was 5.73 µM and the TGI was 21.9 µM. Regarding `CCOc1ccc(NC(=O)CC2SC(=Nc3ccc(C)cc3)NC2=O)cc1` (stereo not drawn), the TGI was above 100 µM. With `CCCOC(=O)c1cc(O)c(O)c(O)c1`, the TGI was above 100 µM. Same read-out and setting: the same measure for `Cc1cc(N(CCC#N)CCC#N)ccc1/C=C(\NC(=O)/C=C/c1ccccc1)C(=O)Nc1ccccc1Cl`: above 100 µM; for `Nc1nc(SCc2ccccc2Cl)c2ncn(C3OC(CO)C(O)C3O)c2n1` (stereo not drawn): above 100 µM.

Turning to `CNC(=O)CCN1CCN(CC/C=C2\c3ccccc3Sc3ccc(Cl)cc32)CC1`, the GI50 was 14.8 µM and the TGI worked out at 29.4 µM.

For the compound `CCn1cc(C(=O)O)c(=O)c2cc(F)c(N3CCN(S(=O)(=O)c4ccc(Cl)cc4Cl)CC3)cc21`, the GI50 was 2.86 µM and the TGI is 8.27 µM.

The compound `COC(=O)CN1CCN(c2cccc3c2CCCC3)CC1` gave a TGI above 100 µM. Consider `Cc1ccc(NCCNCC(C)(C)O)c2c(=O)c3ccc(Cl)cc3sc12`, for which the GI50 is 1.19 µM and the TGI came to 2.52 µM. In the case of `CCOC(=O)c1ccc(N(CCOS(C)(=O)=O)CCOS(C)(=O)=O)cc1`, the TGI was above 100 µM. For `N#C[S-].[La+3].c1ccc(-c2ccccn2)nc1.c1ccc(-c2ccccn2)nc1.c1ccc(-c2ccccn2)nc1`, the GI50 is 36.9 µM and the TGI is above 100 µM. As for `O=C1c2cc3c(cc2NC(c2ccccc2F)C1O)OCO3` (stereo not drawn), the TGI is above 100 µM. As for `CCCCNc1ncnc2c1cnn2-c1ccccc1`, the GI50 is 6.09 µM and the TGI was above 100 µM. On to `C=C1C(=O)OC2CC(C)C(/C=C/C(C)=O)=CCC12` (stereo not drawn), for which the TGI was above 100 µM. Compound `CN(C)C(=O)C(F)(F)C(c1ccccc1Br)C1C(=O)N(C)C(=O)N(C)C1=O` (stereo not drawn) registered a TGI above 100 µM. Turning to `NNc1c(C(N)=O)c2c(N)ncnc2n1C1OC(CO)C(O)C1O` (stereo not drawn), the GI50 is 0.11 µM; the TGI is 9.77 µM and 2.6 µM. Turning to `O=C1NC(N2CCCC(CO)C2)=N/C1=C\c1cccs1` (stereo not drawn), the TGI is above 100 µM. Same read-out and setting: to `O=C1/C(=C/c2ccc(Cl)cc2)CCC1CNc1ccc(Cl)cc1` (stereo not drawn) belongs above 95 µM. The same measure, in the same setting: the same measure for `C=CCNC(=S)NNC(=O)c1c(C)nc2sccn12`: above 100 µM; for `CCN(CC)c1c(C(C)(C)C)c(=O)n2ccsc2c1OC(C)=O`: 32.3 µM; for `COCN1C(=O)[C@@H]2CCCN2C(=O)c2ccc(N)cc21`: above 100 µM. The same measure, in the same setting: the same measure for `COc1cccc(/C=C2\N=C(c3ccccc3)OC2=O)c1`: above 100 µM. `O/N=C\c1c2c(cc3c1CCC3)CCC2` gave a TGI above 100 µM. Still for that read-out and setting: the same measure for `CN(C(=O)Cc1ccccc1)n1cn[n+](CC(=O)OC(C)(C)C)c1`: above 10 µM; for `CN(CCN)[C@H](CSSC[C@@H](c1ccccc1O)N(C)CCN)c1ccccc1O`: 27.8 µM; for `CC1(C)N=C(C(N)=O)c2[nH]cnc2N1`: above 100 µM. The same measure, in the same setting: the same measure for `Nc1nc(Cl)c2ncn(CCCC(c3ccccc3)P(=O)(O)O)c2n1` (stereo not drawn): above 100 µM; for `Cc1cc(C)c2nc3c(c(C(O)C4CCCCN4)c2c1)CC/C3=C\c1ccc(Cl)cc1` (stereo not drawn): above 100 µM.
